In ChEMBL document CHEMBL4888484, “Replenishing the malaria drug discovery pipeline: Screening and hit evaluation of the MMV Hit Generation Library 1 (HGL1) against asexual blood stage Plasmodium falciparum ,using a nano luciferase reporter read-out” (2022):
Among all 150,000 compounds or so, about 540 (0.36%) showed an effect of 50% or more. This is one part of the list.

Tested on: Plasmodium falciparum
Assay: Primary screen in NF54 nanoGlo assay, in single point, at 2uM, 72h; a lower Z score goes with more inhibition
Assay type: functional, Erythrocyte
Details: timepoint 72 hour

SMILES | % Inhibition [%] | Z score
O=C(NCC1CCN(C(=O)c2cc(=O)n(-c3ccccc3)[nH]2)CC1)[C@@H]1CCCO1 | -9 | 1.14
COC1CCN([C@H]2CCC[C@H]2N(C)C(=O)Nc2ccc(Cn3ccnc3)cn2)C1 (some centres undefined) | 10 | -1.11
O=C(COCc1ccccc1Cl)Nc1ccc(-n2cc[nH]c2=O)cc1 | -12 | 2.25
CCn1nc(C)c2c(C(=O)N3c4ccccc4C[C@@H]3C)cc(-c3ccc(C)cc3)nc21 | 32 | -3.58
CC(C)c1cc(CN(C)CCn2cc[nH]c2=O)on1 | -7 | 0.67
c1cc2nnnn2nc1N(CC1CC1)C1CCCCC1 | -12 | 1.66
COc1ccc(-c2cc3c(=O)n(C[C@H](O)c4ccc(C(C)C)cc4)ccn3n2)cc1 | -13 | 1.51
CC(=O)c1csc(NC(=O)CCN2CCCS2(=O)=O)n1 | 4 | -0.56
Cn1nccc1CN1CC2CCC1(CNC(=O)OC(C)(C)C)CC2 | 3 | -0.38
C[C@H](OC(=O)C1(Cc2nc3ccccc3s2)CCCC1)C(=O)NC(N)=O | -5 | 0.71
O=C(Nc1ccc(F)cc1)N[C@H]1[C@H](O)[C@@H](Oc2ccccc2)[C@@H]2OC[C@H]1O2 | 31 | -3.47
Cc1ccc(-c2ccc(C(=O)N3CCCN(S(C)(=O)=O)CC3)cc2)nn1 | -5 | 0.96
Cn1c(NCc2cn(-c3cccc(Cl)c3Cl)nn2)nc2ccc(C#N)cc21 | 5 | -0.51
CS(=O)(=O)NCCn1cnc(C2CCCC2)cc1=O | -8 | 1.5
O=C(Nc1ccc2c(c1)CCC2)c1ccco1 | -12 | 0.98
Cn1ccnc1CN[C@@]1(C)CCCc2ccccc21 | 11 | -1.27
c1cncc(NCCCNc2ccc3cc[nH]c3n2)c1 | -13 | 1.64
COc1ccsc1[C@H](C)NCc1ccc(OCC2CC2)nc1 | 0 | 0.04
CCC(=O)N1CC[C@H](C(=O)Nc2nc(-c3ccc4c(c3)CCCC4)cs2)C1 | 3 | -0.46
CCc1ccc(C(=O)N(CC(=O)O)CC(C)C)o1 | 0 | 0.01
CCN(CC)S(=O)(=O)c1cc(C(=O)Nc2cc(C)ccn2)n(C)c1 | 11 | -1.33

SMILES | % Inhibition [%] | Z score
CC(NCC(=O)NC(=O)NC1CC1)C(C)c1ccccc1 (centres undefined) | -10 | 1.64
O=C(Cn1cc(N[C@H]2CCc3ccccc3C2)cn1)N1CCOCC1 | -2 | 0.24
COc1cccc(-c2nc(COc3cc(-c4ccccc4)c4c(C)nn(C)c4n3)c(C)o2)c1OC | -7 | 1.29
CCC1CCC(NC(=O)c2ccc3c(c2)OCCO3)CC1 (centres undefined) | -13 | 1.23
CN(C)Cc1cccc(C(=O)N(Cc2cccnc2)C2CCCCC2)c1 | -2 | 0.3
Cc1cnn(-c2ccncc2NC(=O)C2CCCOC2C)c1 (centres undefined) | 2 | -0.24
O=C(Nc1cccc(F)c1)c1coc(CN2CCN(Cc3ccc(F)cc3F)CC2)n1 | -9 | 1.24
Cc1ccc(C#N)c(NC(=O)c2nc(-c3ccccc3)n(-c3ccccc3)n2)n1 | -7 | 0.77
O=C(NCCCn1cccn1)C1CCN(c2nnc3ccccn23)CC1 | -5 | 0.59
Cc1cccc(N2CCN(C(=O)c3cccc(Nc4nc5ccccc5n5cnnc45)c3)CC2)c1C | 0 | 0
O=C(c1ccco1)N(Cc1cccc(F)c1)c1ccccn1 | -5 | 0.75
Clc1ccccc1-c1cc(Cn2ccnc2-c2ccncc2)no1 | -7 | 1.43
Cc1cnc(CCNC(=O)c2cccn2C)n1C1CCCCC1 | -3 | 0.38
CCN(CC(=O)Nc1ccn(C)n1)C[C@H]1CCCCO1 | 6 | -0.52
COc1ccc(Cn2nc(C3CC3)nc2[C@@H]2CCCCCN2C)cc1 | -7 | 1.46
COc1ccc(OCc2nn(CC(=O)Nc3ccccc3)c(=S)o2)cc1 | -45 | 5.26
Cn1cc([C@H]2CCCN(C(=O)CCc3ccccc3Br)C2)cn1 | -16 | 1.99
CN(Cc1cccnc1)Cc1cnc2ncccn12 | -9 | 1.22
CC(O)CC1CCCCCN1C(=O)c1cc2c(s1)CCC2 (centres undefined) | -11 | 1.24
CCOc1ccccc1C(=O)Nc1cccc(NC(=O)c2ccccc2OCC)n1 | -2 | 0.25
Cc1ccc2cc(CN3C[C@@H](CO)[C@H](c4nc(C)no4)C3)c(O)nc2c1 | -12 | 2.08
